{
  "source": "the supplement of paper PMC8821664",
  "note": "Counter-ions that a name gives are not always drawn. This is one part of the list. Many values rest on one well or one pass, so single values are uncertain.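 Note: monoclonal Beas-2B line stably carrying CMV promoter-driven AQP5-HiBiT, 5,000 cells per well in 384-well plates, lytic HiBiT plus LgBiT NanoLuc luminescence, FDA-approved drug library screen.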",
  "data": [
    {"tested_on": "Beas-2B AQP5-HiBiT reporter cells", "assay": "AQP5-HiBiT luminescence relative to vehicle (ratio to vehicle); higher = higher AQP5-HiBiT protein abundance", "conditions": "10 µM; 18 h", "values": [
      {"smiles": "C[C@H]1O[C@@H](O[C@H]2[C@@H](O)C[C@H](O[C@H]3[C@@H](O)C[C@H](O[C@H]4CC[C@@]5(C)[C@H](CC[C@@H]6[C@@H]5C[C@@H](O)[C@]5(C)[C@@H](C7=CC(=O)OC7)CC[C@]65O)C4)O[C@@H]3C)O[C@@H]2C)C[C@H](O)[C@@H]1O", "note": "[Digoxin]", "AQP5-HiBiT luminescence": 2.89},
      {"smiles": "C[C@H]1COc2c(N3CCN(C)CC3)c(F)cc3c(=O)c(C(=O)O)cn1c23", "note": "[Levofloxacin hydrochloride]", "AQP5-HiBiT luminescence": 0.935},
      {"smiles": "O=C(O)c1cn(C2CC2)c2cc(N3CCNCC3)c(F)cc2c1=O", "note": "[Ciprofloxacin hydrochloride]", "AQP5-HiBiT luminescence": 1.12},
      {"smiles": "CN1CCC(=C2c3ccccc3CC(=O)c3sccc32)CC1", "note": "[Ketotifen fumarate]", "AQP5-HiBiT luminescence": 0.85},
      {"smiles": "Cc1cn(-c2cc(NC(=O)c3ccc(C)c(Nc4nccc(-c5cccnc5)n4)c3)cc(C(F)(F)F)c2)cn1", "note": "[Nilotinib (AMN-107)]", "AQP5-HiBiT luminescence": 2.81},
      {"smiles": "CN(C)C/C=C/C(=O)Nc1cc2c(Nc3ccc(F)c(Cl)c3)ncnc2cc1O[C@H]1CCOC1", "note": "[Afatinib (BIBW2992) Dimaleate]", "AQP5-HiBiT luminescence": 1.61},
      {"smiles": "C#C[C@]1(O)CC[C@H]2[C@@H]3CCC4=CC(=O)CC[C@@H]4[C@H]3C(=C)C[C@@]21CC", "note": "[Etonogestrel]", "AQP5-HiBiT luminescence": 0.678},
      {"smiles": "COc1ccnc(C[S+]([O-])c2nc3cc(OC(F)F)ccc3[nH]2)c1OC", "note": "(stereo not given) [Pantoprazole Sodium Hydrate]", "AQP5-HiBiT luminescence": 0.704},
      {"smiles": "CN(N=O)C(=O)N[C@@H](C=O)[C@@H](O)[C@H](O)[C@H](O)CO", "note": "[Streptozocin]", "AQP5-HiBiT luminescence": 0.791},
      {"smiles": "O=c1[nH]c(=O)n([C@H]2C[C@H](O)[C@@H](CO)O2)cc1I", "note": "[Dendrid]", "AQP5-HiBiT luminescence": 3.38},
      {"smiles": "C=C[C@H]1CN2CC[C@H]1C[C@@H]2[C@@H](O)c1ccnc2ccc(OC)cc12", "note": "[Quinidine hydrochloride]", "AQP5-HiBiT luminescence": 1.14},
      {"smiles": "[I-].[K+]", "note": "[Potassium iodide]", "AQP5-HiBiT luminescence": 0.987},
      {"smiles": "Cc1onc(-c2ccccc2)c1-c1ccc(S(N)(=O)=O)cc1", "note": "[Valdecoxib]", "AQP5-HiBiT luminescence": 0.823},
      {"smiles": "Clc1ccc2c(c1)C(N1CCNCC1)=Nc1ccccc1O2", "note": "[Amoxapine]", "AQP5-HiBiT luminescence": 1.4},
      {"smiles": "CCN(CC)C(=O)/C(C#N)=C/c1cc(O)c(O)c([N+](=O)[O-])c1", "note": "[Entacapone]", "AQP5-HiBiT luminescence": 0.625},
      {"smiles": "c1ccc(CC2=NCCN2)cc1", "note": "[Tolazoline hydrochloride]", "AQP5-HiBiT luminescence": 0.895},
      {"smiles": "CCC(C)n1ncn(-c2ccc(N3CCN(c4ccc(OCC5COC(Cn6cncn6)(c6ccc(Cl)cc6Cl)O5)cc4)CC3)cc2)c1=O", "note": "(stereo not given) [Itraconazole]", "AQP5-HiBiT luminescence": 1.38},
      {"smiles": "Nc1ncnc2c1ncn2[C@@H]1O[C@H](CO)[C@@H](O)[C@@H]1O", "note": "[Vidarabine]", "AQP5-HiBiT luminescence": 0.729},
      {"smiles": "CCCc1cc(=O)[nH]c(=S)[nH]1", "note": "[Propylthiouracil]", "AQP5-HiBiT luminescence": 1.05},
      {"smiles": "CNC(=O)c1cnn(-c2nc(N)c3ncn([C@@H]4O[C@H](CO)[C@@H](O)[C@H]4O)c3n2)c1", "note": "[Regadenoson]", "AQP5-HiBiT luminescence": 0.855},
      {"smiles": "COc1ccccc1OCCNCC(O)COc1cccc2[nH]c3ccccc3c12", "note": "(stereo not given) [Carvedilol phosphate]", "AQP5-HiBiT luminescence": 0.846},
      {"smiles": "Cc1onc(-c2c(Cl)cccc2Cl)c1C(=O)N[C@@H]1C(=O)N2[C@@H]1SC(C)(C)[C@@H]2C(=O)O", "note": "[Dicloxacillin sodium]", "AQP5-HiBiT luminescence": 0.679},
      {"smiles": "C=CC[C@@H]1/C=C(\\C)C[C@H](C)C[C@H](OC)[C@H]2O[C@@](O)(C(=O)C(=O)N3CCCC[C@H]3C(=O)O[C@H](/C(C)=C/[C@@H]3CC[C@@H](O)[C@H](OC)C3)[C@H](C)[C@@H](O)CC1=O)[C@H](C)C[C@@H]2OC", "note": "[Tacrolimus (FK506)]", "AQP5-HiBiT luminescence": 0.857},
      {"smiles": "C[C@]12CCC3=C4CCC(=O)C=C4CC[C@H]3[C@@H]1CC[C@@]2(O)CC#N", "note": "[Dienogest]", "AQP5-HiBiT luminescence": 0.53},
      {"smiles": "CC[C@H]1OC(=O)[C@H](C)[C@@H](O[C@H]2C[C@@](C)(OC)[C@@H](O)[C@H](C)O2)[C@H](C)[C@@H](O[C@@H]2O[C@H](C)C[C@H](N(C)C)[C@H]2O)[C@](C)(OC)C[C@@H](C)C(=O)[C@H](C)[C@@H](O)[C@]1(C)O", "note": "[Clarithromycin]", "AQP5-HiBiT luminescence": 0.85},
      {"smiles": "S=P(N1CC1)(N1CC1)N1CC1", "note": "[Triethylenethiophosphoramide]", "AQP5-HiBiT luminescence": 1.02},
      {"smiles": "CCCN1CCCC[C@H]1C(=O)Nc1c(C)cccc1C", "note": "[Ropivacaine]", "AQP5-HiBiT luminescence": 1.04},
      {"smiles": "CC(C)OC(=O)CCC/C=C\\C[C@@H]1[C@@H](CC[C@@H](O)CCc2ccccc2)[C@H](O)C[C@@H]1O", "note": "[Latanoprost]", "AQP5-HiBiT luminescence": 0.794},
      {"smiles": "CNC(=O)c1cc(Oc2ccc(NC(=O)Nc3ccc(Cl)c(C(F)(F)F)c3)cc2)ccn1", "note": "[Sorafenib tosylate]", "AQP5-HiBiT luminescence": 0.246},
      {"smiles": "Cn1cnc([N+](=O)[O-])c1Sc1ncnc2[nH]cnc12", "note": "[Azathioprine]", "AQP5-HiBiT luminescence": 0.796}
    ]}
  ]
}
